Measurements as given in article PMC3709894.
No constants are given. Whether binding was seen depends on the method and setting. In cells and extracts the contact can be indirect. Some results given as binding are weak or reduced against the parent protein; the word gives no strength. For some of these results: Sequences can lack the tags named with a protein. Values belong to the binder of their own block, whether it stands above or below them.

How the values were obtained:
[1] = biological target: T1, N-terminal fragment (1–172 aa) of Rad21 (Rad21 NT), expressed in 293 T cells (human) (UniProt O60216); experiment: co-IP; 293 T cells transfected with differently tagged (Flag, HA) Rad21 NT, MP or CT fragments; IP from cell lysates 40 h after transfection; blots of the other copy and of endogenous proteins
T1 sequence: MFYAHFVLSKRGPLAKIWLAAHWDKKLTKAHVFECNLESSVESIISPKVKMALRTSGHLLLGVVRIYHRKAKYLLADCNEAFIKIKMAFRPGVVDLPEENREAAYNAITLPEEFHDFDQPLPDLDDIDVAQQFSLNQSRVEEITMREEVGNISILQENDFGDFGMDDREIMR

[2] = biological target: T2, middle part (173–450 aa) of Rad21 (Rad21 MP), expressed in 293 T cells (human) (UniProt O60216); experiment: as above
T2 sequence: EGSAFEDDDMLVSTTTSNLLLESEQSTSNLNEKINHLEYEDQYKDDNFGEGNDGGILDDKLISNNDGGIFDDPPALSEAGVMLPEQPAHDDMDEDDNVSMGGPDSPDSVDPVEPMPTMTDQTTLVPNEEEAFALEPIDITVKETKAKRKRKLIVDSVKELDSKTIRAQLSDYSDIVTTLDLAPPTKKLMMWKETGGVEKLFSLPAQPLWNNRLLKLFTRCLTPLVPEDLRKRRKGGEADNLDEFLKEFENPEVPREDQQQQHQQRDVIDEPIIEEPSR

[3] = biological target: T3, Flag-Rad21 WT (full length) in pFlag CMV2 (human) (UniProt O60216); experiment: co-IP; 293 T cells transfected with pFlag CMV2 Rad21 constructs; IP of Flag-Rad21 (Flag mAb agarose beads) from whole cell lysate, blots of endogenous cohesin subunits and associated proteins
T3 sequence: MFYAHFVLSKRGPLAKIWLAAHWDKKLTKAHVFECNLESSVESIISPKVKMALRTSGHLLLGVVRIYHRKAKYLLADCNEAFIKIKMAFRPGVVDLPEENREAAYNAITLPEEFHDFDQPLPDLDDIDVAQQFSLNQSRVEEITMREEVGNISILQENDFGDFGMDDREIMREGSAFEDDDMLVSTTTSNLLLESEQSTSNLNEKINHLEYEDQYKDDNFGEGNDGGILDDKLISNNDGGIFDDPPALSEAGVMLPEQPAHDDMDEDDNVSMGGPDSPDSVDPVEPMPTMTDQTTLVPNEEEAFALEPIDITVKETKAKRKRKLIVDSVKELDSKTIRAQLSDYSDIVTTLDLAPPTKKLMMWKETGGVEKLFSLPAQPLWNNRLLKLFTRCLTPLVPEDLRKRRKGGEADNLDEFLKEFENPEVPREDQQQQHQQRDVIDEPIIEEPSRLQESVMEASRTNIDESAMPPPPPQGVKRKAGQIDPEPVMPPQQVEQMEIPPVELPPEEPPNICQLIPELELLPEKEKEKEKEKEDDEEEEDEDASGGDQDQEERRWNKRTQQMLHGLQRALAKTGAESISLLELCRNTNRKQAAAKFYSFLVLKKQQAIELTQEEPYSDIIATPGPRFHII

B1: N-terminal fragment (1–172 aa) of Rad21 (Rad21 NT), expressed in 293 T cells (domain or fragment, UniProt O60216 1-172)
chain: T1 sequence
- binding [1]: binds

B3: endogenous Pds5A (protein, UniProt Q29RF7 1-1337)
chain: MDFTAQPKPATALCGVVSADGKIAYPPGVKEITDKITTDEMIKRLKMVVKTFMDMDQDSEDEKQQYLPLALHLASEFFLRNPNKDVRLLVACCLADIFRIYAPEAPYTSHDKLKDIFLFITRQLKGLEDTKSPQFNRYFYLLENLAWVKSYNICFELEDCNEIFIQLFRTLFSVINNSHNKKVQMHMLDLMSSIIMEGDGVTQELLDSILINLIPAHKNLNKQSFDLAKVLLKRTVQTIEACIANFFNQVLVLGRSSVSDLSEHVFDLIQELFAIDPHLLLSVMPQLEFKLKSNDGEERLAVVRLLAKLFGSKDSDLATQNRPLWQCFLGRFNDIHVPVRLESVKFASHCLMNHPDLAKDLTEYLKVRSHDPEEAIRHDVIVTIITAAKRDLALVNDQLLGFVRERTLDKRWRVRKEAMMGLAQLYKKYCLHGEAGKEAAEKVSWIKDKLLHIYYQNSIDDKLLVEKIFAQYLVPHNLETEERMKCLYYLYASLDPNAVKALNEMWKCQNMLRSHVRELLDLHKQPTSEANCSAMFGKLMTIAKNLPDPGKAQDFVKKFNQVLGDDEKLRSQLELLISPTCSCKQADICVREIARKLANPKQPTNPFLEMVKFLLERIAPVHIDSEAISALVKLMNKSIEGTADDEEEGVSPDTAIRSGLELLKVLSFTHPTSFHSAETYESLLQCLRMEDDKVAEAAIQIFRNTGHKIETDLPQIRSTLIPILHQKAKRGTPHQAKQAVHCIHAIFTNKEVQLAQIFEPLSRSLNADVPEQLITPLVSLGHISMLAPDQFASPMKSVVANFIVKDLLMNDRSTGEKNGKLWSPDEEVSPEVLAKVQAIKLLVRWLLGMKNNQSKSANSTLRLLSAMLVSEGDLTEQKRISKSDMSRLRLAAGSAIMKLAQEPCYHEIITPEQFQLCALVINDECYQVRQIFAQKLHKALVKLLLPLEYMAIFALCAKDPVKERRAHARQCLLKNISIRREYIKQNPMATEKLLSLLPEYVVPYMIHLLAHDPDFTRSQDVDQLRDIKECLWFMLEVLMTKNENNSHAFMKKMAENIKLTRDAQSPDESKTNEKLYTVCDVALCVINSKSALCNADSPKDPVLPMKFFTQPEKDFCNDKSYISEETRVLLLTGKPKPAGVLGAVNKPLSATGRKPYVRSTGTETGSNINVNSELNPSTGNRSREQSSEAAETGVSENEENPVRIISVTPVKNIDPVKNKEINSDQATQGNISSDRGKKRTVTAAGAENIQQKTDEKVDESGPPAPSKPRRGRRPKSESQGNATKNDDLNKPINKGRKRAAVGQESPGGLEAGNAKAPKLQDLAKKAAPAERQIDLQR
- binding [3]: binds weakly

Second part, the binder after the results:

- binding [2]: binds
B2: middle part (173–450 aa) of Rad21 (Rad21 MP), expressed in 293 T cells (domain or fragment, UniProt O60216 173-450)
chain: T2 sequence

- binding [3]: binds weakly
B4: endogenous Pds5B (protein, UniProt Q9NTI5 1-1447)
chain: MAHSKTRTNDGKITYPPGVKEISDKISKEEMVRRLKMVVKTFMDMDQDSEEEKELYLNLALHLASDFFLKHPDKDVRLLVACCLADIFRIYAPEAPYTSPDKLKDIFMFITRQLKGLEDTKSPQFNRYFYLLENIAWVKSYNICFELEDSNEIFTQLYRTLFSVINNGHNQKVHMHMVDLMSSIICEGDTVSQELLDTVLVNLVPAHKNLNKQAYDLAKALLKRTAQAIEPYITNFFNQVLMLGKTSISDLSEHVFDLILELYNIDSHLLLSVLPQLEFKLKSNDNEERLQVVKLLAKMFGAKDSELASQNKPLWQCYLGRFNDIHVPIRLECVKFASHCLMNHPDLAKDLTEYLKVRSHDPEEAIRHDVIVSIVTAAKKDILLVNDHLLNFVRERTLDKRWRVRKEAMMGLAQIYKKYALQSAAGKDAAKQIAWIKDKLLHIYYQNSIDDRLLVERIFAQYMVPHNLETTERMKCLYYLYATLDLNAVKALNEMWKCQNLLRHQVKDLLDLIKQPKTDASVKAIFSKVMVITRNLPDPGKAQDFMKKFTQVLEDDEKIRKQLEVLVSPTCSCKQAEGCVREITKKLGNPKQPTNPFLEMIKFLLERIAPVHIDTESISALIKQVNKSIDGTADDEDEGVPTDQAIRAGLELLKVLSFTHPISFHSAETFESLLACLKMDDEKVAEAALQIFKNTGSKIEEDFPHIRSALLPVLHHKSKKGPPRQAKYAIHCIHAIFSSKETQFAQIFEPLHKSLDPSNLEHLITPLVTIGHIALLAPDQFAAPLKSLVATFIVKDLLMNDRLPGKKTTKLWVPDEEVSPETMVKIQAIKMMVRWLLGMKNNHSKSGTSTLRLLTTILHSDGDLTEQGKISKPDMSRLRLAAGSAIVKLAQEPCYHEIITLEQYQLCALAINDECYQVRQVFAQKLHKGLSRLRLPLEYMAICALCAKDPVKERRAHARQCLVKNINVRREYLKQHAAVSEKLLSLLPEYVVPYTIHLLAHDPDYVKVQDIEQLKDVKECLWFVLEILMAKNENNSHAFIRKMVENIKQTKDAQGPDDAKMNEKLYTVCDVAMNIIMSKSTTYSLESPKDPVLPARFFTQPDKNFSNTKNYLPPEMKSFFTPGKPKTTNVLGAVNKPLSSAGKQSQTKSSRMETVSNASSSSNPSSPGRIKGRLDSSEMDHSENEDYTMSSPLPGKKSDKRDDSDLVRSELEKPRGRKKTPVTEQEEKLGMDDLTKLVQEQKPKGSQRSRKRGHTASESDEQQWPEEKRLKEDILENEDEQNSPPKKGKRGRPPKPLGGGTPKEEPTMKTSKKGSKKKSGPPAPEEEEEEERQSGNTEQKSKSKQHRVSRRAQQRAESPESSAIESTQSTPQKGRGRPSKTPSPSQPKKNVRVGRSKQAATKENDSSEEVDVFQGSSPVDDIPQEETEEEEVSTVNVRRRSAKRERR
